Assay results from PMC7819943, “Rice protein-binding microarrays: a tool to detect cis-acting elements near promoter regions in rice”.
Some of the results follow.

The sequences below were run against T1, OsWOX13 (Oryza sativa, UniProt Q5QMM3 1-267) (assay: protein-binding microarray (RPBM); PBS, 2% BSA, 51.3 ng/ul salmon testes DNA, 50 uM zinc acetate, 200 nM TF, 25 C, 1 h; high values mean tight binding). Conditions: protein: recombinant; tags: N-terminal polyhistidine and DsRed monomer fusion (pET32a); label: CyDye5-dUTP incorporated in the synthesized complementary strand; 3' TTTTT single-stranded linker to array surface; dsDNA, one strand shown.
T1 sequence: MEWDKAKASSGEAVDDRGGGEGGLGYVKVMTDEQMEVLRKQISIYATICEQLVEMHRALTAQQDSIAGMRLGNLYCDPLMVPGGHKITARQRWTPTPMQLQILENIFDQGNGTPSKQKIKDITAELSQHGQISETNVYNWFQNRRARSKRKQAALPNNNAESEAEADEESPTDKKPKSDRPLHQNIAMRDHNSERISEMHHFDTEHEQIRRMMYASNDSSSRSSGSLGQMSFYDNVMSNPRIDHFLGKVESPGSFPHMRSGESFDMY
Outline: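 Transcription factors were each fused at the N-terminus to a polyhistidine tag plus DsRed and expressed in E. coli BL21-CodonPlus before Ni–NTA purification. Binding to a double-stranded custom Agilent array was carried out with 200 nM protein at 25 °C for 1 h in PBS, 2% BSA, salmon testes DNA and 50 µM zinc acetate. The binding signal is per-feature fluorescence intensity, in arbitrary units, on an Axon 4000B scanner.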
For “CTGGCTGATTGCGTTGTGTATCAAAACTCTATTCCATCTACGGAGTCACCTAGTGCAG”, the binding signal was 37100 fluorescence intensity (a.u.).
In the case of “GATTCAGTTTAATATATACTAATTGCACAAAACTGAATAACGGAGTCACCTAGTGCAG”, the binding signal is reported as 9520 fluorescence intensity (a.u.).
With “GTTAATAACCGATTTTGCCATTGAGTGATGAGATTCGAGCCGGAGTCACCTAGTGCAG” the binding signal was 3840 fluorescence intensity (a.u.).
“CAAGAATTGATTGCTTCTGTACTTCACATAGACTAATGTTCGGAGTCACCTAGTGCAG” was tested, and the binding signal was 40500 fluorescence intensity (a.u.).
In the case of “CAAACAAGCCAGCTCAATCAATCATCGAGCTAGCTGAGCTCGGAGTCACCTAGTGCAG”, the binding signal is reported as 8080 fluorescence intensity (a.u.).
With “AACCATGTTAATTAACAGAGGTTATCTAATCATCTAACAACGGAGTCACCTAGTGCAG” the binding signal was 12800 fluorescence intensity (a.u.).
For “CCAAACTGGAAAATTACGGCTCGCAGTATTCGCTTAGGCCCGGAGTCACCTAGTGCAG”, the binding signal was 25500 fluorescence intensity (a.u.).
In the case of “AATACTTTGCACATCAATTCAATCAACTAGCCTACATAAACGGAGTCACCTAGTGCAG”, the binding signal is reported as 4860 fluorescence intensity (a.u.).
In the case of “CCATGGAAATTGAAGGGAAACATTCTTAACTATGGACTTGCGGAGTCACCTAGTGCAG”, the binding signal is reported as 3760 fluorescence intensity (a.u.).
“TTTGATTGGTAAACCGCTTCTACTCACAAGTCACGTAAAGCGGAGTCACCTAGTGCAG” was tested, and the binding signal was 44800 fluorescence intensity (a.u.).
In the case of “ATACGCTAATTGTTTGAAATTCGTCTCAAGATGTATCGGGCGGAGTCACCTAGTGCAG”, the binding signal is reported as 30600 fluorescence intensity (a.u.).
With “CATCAATCAGTTATCTTGTAGCTAGCTACCTGATCGAACTCGGAGTCACCTAGTGCAG” the binding signal was 24200 fluorescence intensity (a.u.).
With “AAAATTGACTATAAATGATTTGGAGCCGGTAGTTGGCTATCGGAGTCACCTAGTGCAG” the binding signal was 51700 fluorescence intensity (a.u.).
For “TGTAACTGAAATGTCAATTTATCGATGTGAATGTCCCGTCCGGAGTCACCTAGTGCAG”, the binding signal was 39200 fluorescence intensity (a.u.).
“CTGTACATCAATCTGTGCGTGATTGAAATCCTGGACGATCCGGAGTCACCTAGTGCAG” was tested, and the binding signal was 45600 fluorescence intensity (a.u.).
In the case of “CAATAATGATGGGGTGGTGGAGATGGTGGTGGGTTTGGTCCGGAGTCACCTAGTGCAG”, the binding signal is reported as 9680 fluorescence intensity (a.u.).
With “CATATTGACAGCTTTGTAATTGCATTTGACAGGTTCAACCCGGAGTCACCTAGTGCAG” the binding signal was 60500 fluorescence intensity (a.u.).
With “AAATAAAATAAAATTATTTGGGTTAAAATGATAGAGGTGGCGGAGTCACCTAGTGCAG” the binding signal was 3300 fluorescence intensity (a.u.).
“ACAAATTACATAATTCGCCTGTAAAATGTGAGACAAATTTCGGAGTCACCTAGTGCAG” was tested, and the binding signal was 10400 fluorescence intensity (a.u.).
For “CTAGCTAATCAGTGACCCTTATCGGCTCATCCACTCACAACGGAGTCACCTAGTGCAG”, the binding signal was 6590 fluorescence intensity (a.u.).
In the case of “AGGAAGTATACGCCAATCATTTGATTCTTCCCCACCTAATCGGAGTCACCTAGTGCAG”, the binding signal is reported as 3180 fluorescence intensity (a.u.).
“AGGTTGATTTACTCATCTGTGAAGATTGATTAGTTGCAACCGGAGTCACCTAGTGCAG” was tested, and the binding signal was 42000 fluorescence intensity (a.u.).
With “TCCAATCCCCGTTAATATTAATTTTACAAACGGTAGTCCACGGAGTCACCTAGTGCAG” the binding signal was 8140 fluorescence intensity (a.u.).
In the case of “GTGATATACCTTTCAATTAGCAGGCCAAGTAACAGGGAAACGGAGTCACCTAGTGCAG”, the binding signal is reported as 7320 fluorescence intensity (a.u.).
In the case of “TGGTCCTGATTTATTTGGTACAAACATACTTCTACGTTACCGGAGTCACCTAGTGCAG”, the binding signal is reported as 4650 fluorescence intensity (a.u.).
For “TGTGATAGAAAGTTAGAAGTTAAGGGAAGTTTGGTGTGAACGGAGTCACCTAGTGCAG”, the binding signal was 7240 fluorescence intensity (a.u.).
For “GGGATTGAGAGAAAATAATTCCGTACGATAATAGGCATGACGGAGTCACCTAGTGCAG”, the binding signal was 16000 fluorescence intensity (a.u.).
For “TCGATCAATCAGGCCATAGCTTAGCCCATTGGCACGAACTCGGAGTCACCTAGTGCAG”, the binding signal was 10700 fluorescence intensity (a.u.).
With “GATTAATTAGCCAATGAGAAGAGCCAAAATAGTACACATCCGGAGTCACCTAGTGCAG” the binding signal was 23400 fluorescence intensity (a.u.).
“CCTAAGTGACAGGATCAGGTCAAACCGTGATGGCACGCCACGGAGTCACCTAGTGCAG” was tested, and the binding signal was 6720 fluorescence intensity (a.u.).
With “ACCAATCAAGCGGAAAGAGATAATCAGGGGTGAGGAGATTCGGAGTCACCTAGTGCAG” the binding signal was 5170 fluorescence intensity (a.u.).
For “ATACTAATCTCGTGAAATTTCACGTTCTCGCTGTCACAAACGGAGTCACCTAGTGCAG”, the binding signal was 4590 fluorescence intensity (a.u.).
For “CCTGATATATCTGTTTTCGACAGCCCATTACTGTTTCTTGCGGAGTCACCTAGTGCAG”, the binding signal was 3940 fluorescence intensity (a.u.).
In the case of “AGGCAATTAACTATGACCACTTCTTCAATAAATTATTACTCGGAGTCACCTAGTGCAG”, the binding signal is reported as 8960 fluorescence intensity (a.u.).
For “TATGTGATTATCTTCTCCATACCATCATGTTCTAGATACGCGGAGTCACCTAGTGCAG”, the binding signal was 24900 fluorescence intensity (a.u.).
In the case of “TGTGAGATTGAGGACGAATTGAAGCCTAGCTTGTGACGCACGGAGTCACCTAGTGCAG”, the binding signal is reported as 17800 fluorescence intensity (a.u.).
For “CATGATGAATTGCTGCGTATTGCCTTGCTAATGCCTGGTTCGGAGTCACCTAGTGCAG”, the binding signal was 14900 fluorescence intensity (a.u.).
In the case of “ACTTAACGTGATGGAATGGCATCCATAATATTCGTCCACCCGGAGTCACCTAGTGCAG”, the binding signal is reported as 16500 fluorescence intensity (a.u.).
In the case of “CGCTCCCGTCTCCGATAATCAATGGCTGATCAGCCTCCGCCGGAGTCACCTAGTGCAG”, the binding signal is reported as 3480 fluorescence intensity (a.u.).
In the case of “TGCAAATTTAGGCTGATACTGTCTAATATGCTATGCATTTCGGAGTCACCTAGTGCAG”, the binding signal is reported as 4200 fluorescence intensity (a.u.).
For “TGTTAACTCTTCAATCTGTATCACAGCATGTCATCTTCGGCGGAGTCACCTAGTGCAG”, the binding signal was 9370 fluorescence intensity (a.u.).
For “GCATGATTACCCTTAGACTTCCTTTCCTATTATATAAAGCCGGAGTCACCTAGTGCAG”, the binding signal was 24200 fluorescence intensity (a.u.).
